Experimental data: the supplement of paper PMC11417369
The other results are listed elsewhere or left out.

What follows are sequences tested on PfSIP2 AP2 domain 1 (GST-tagged) (assay: gcPBM binding intensity (ln(normalized median fluorescence intensity)); higher = stronger DNA binding).
How it was run: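 The highest Masliner-normalised natural-log median intensity across replicate spots of either probe orientation is reported as binding intensity. GST-tagged P. falciparum DNA-binding domains expressed in E. coli were applied for 1 h to an Agilent 4 × 180k array of primer-extended double-stranded 36-bp intergenic genomic probes plus negative controls, and bound protein was detected with Alexa488 anti-GST antibody and scanned at 488 nm.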

Row | Sequence | gcPBM binding intensity (ln)
1 | ATTTTAATACTTTTATATTAAATGTAGCACATCATA [XGTACX_negctrl_site273] | 6.89
2 | CATTTTTTGCTTTCAACACACATACAATATAAATAA [CACACA_site7858] | 7.27
3 | TTATTTATTTAGTAGTGTACTTTTTATATTTATAAT [XGTACX_site5978] | 6.88
4 | AAAAAAAAAAAATACACACACATATATATATATATA [CACACA_site2224] | 9.24
5 | TATGTAATAAATAGTACACACACACCGATATATATA [CACACA_site8389] | 7.46
6 | TATAATAATATTATAGTGCATATTATTTATATATAA [GTGCAC_site9820] | 8.67
7 | AAAAAAAAAAAAAATAGTACGTAACTATAATTTCCT [XGTACX_site2457] | 7.3
8 | AAATTATAAGTAAAAAGTACTTAATATATAATAAAC [XGTACX_site6065] | 7.08
9 | CTTATACTTCTACATCGTACAAAAGATGGTATAATT [XGTACX_site2698] | 7.09
10 | TAACTTAAATAATACATACACACATGTACATACAGA [CACACA_site1594] | 6.91
11 | TATAATTTTTTTTGGGTGCTTGGGTAAATTTTATTA | 7.86
12 | AATTATATATTATCATGTACAAATATAGTAATACAA [XGTACX_site6845] | 7.06
13 | ATACGTATATAATATACATGCATATATAGCACATAC [TGCATGCA_site376] | 7.61
14 | ATAAAAAAAAAAAAAAATGAAGCATCACCGTGTAAT [XGTACX_negctrl_site288] | 6.99
15 | CACGAAAAAAAAAAATGTACATAAAAATATGATACA [XGTACX_site2536] | 6.85
16 | AAAAAAAAAAAAAAAAAAAAAGGACGGATGGATGGA [GTGCAC_negctrl_site527] | 8.37
17 | TCTCATTTCAACAACAGTACATATCTATCTGTGTAT [XGTACX_site6897] | 6.96
18 | GAAAGAGAAATATATACACACATATTTATATTTTTA [CACACA_site2066] | 6.85
19 | CCTAATTTTTTTAGTTGTACTTTTTTTTTTTTTTAT [XGTACX_site7948] | 7.06
20 | GCCTATATGTTTAGTTGTACTCCTAATATTATTTGT [XGTACX_site6060] | 7.16
21 | CAAATTATTTCGAGGTGTACTTTTTTATATTATATT [XGTACX_site8309] | 7.34
22 | AATGTGTTCATATATGCACACGCATATATATTATTG [CACACA_site9274] | 7.14
23 | TATATAAATGGACACACACACACCTTATAATTATTA [CACACA_site6093] | 7.17
24 | TTTATAAATTGACACACACACATGTGAACATAAAAA [CACACA_site6978] | 7.16
25 | ATGTAACACATATTTGGTACAGATAGATAAAAGTAT [XGTACX_site8291] | 7.3
